Measurements: PubChem BioAssay AID1159614 (National Center for Advancing Translational Sciences (NCATS), 2016)
Out of some 45,000 compounds screened, about 65 (0.1%) were called active. Calls come from the whole dose curve; as a rule, active = well fitted activation curve with a large enough effect; inconclusive = small, poorly fitted or top-dose-only effect; inactive = no such curve, though single readings can be large or run the other way. The list shows a part of the results.

Biological target: Galactocerebrosidase (Homo sapiens) (UniProt P54803)
Chain of UniProt P54803 (P54803 whole entry, looked up): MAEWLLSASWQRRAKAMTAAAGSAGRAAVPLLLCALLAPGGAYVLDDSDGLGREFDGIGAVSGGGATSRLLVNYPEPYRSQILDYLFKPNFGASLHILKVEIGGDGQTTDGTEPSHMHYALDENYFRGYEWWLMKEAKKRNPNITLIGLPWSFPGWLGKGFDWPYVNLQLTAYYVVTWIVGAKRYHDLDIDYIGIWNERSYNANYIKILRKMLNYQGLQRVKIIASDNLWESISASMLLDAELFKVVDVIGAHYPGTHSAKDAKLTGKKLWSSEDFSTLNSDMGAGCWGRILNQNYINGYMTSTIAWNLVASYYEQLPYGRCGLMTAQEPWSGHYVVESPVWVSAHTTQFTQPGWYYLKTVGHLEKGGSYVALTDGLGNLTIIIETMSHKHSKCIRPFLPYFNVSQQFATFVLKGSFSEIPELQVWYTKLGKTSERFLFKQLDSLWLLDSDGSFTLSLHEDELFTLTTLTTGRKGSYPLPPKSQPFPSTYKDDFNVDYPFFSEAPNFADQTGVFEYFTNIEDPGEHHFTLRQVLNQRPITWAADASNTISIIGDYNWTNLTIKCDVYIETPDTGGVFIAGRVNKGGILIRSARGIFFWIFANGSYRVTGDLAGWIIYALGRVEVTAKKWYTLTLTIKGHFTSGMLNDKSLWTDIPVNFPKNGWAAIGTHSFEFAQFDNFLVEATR
Test: A Novel Cell-Based Assay to Identify Small Molecules for B -Galactocerebrosidase; note: 0% is about no effect; nearly all actives have a fitted effect of over 65% in size
Settings: 145M-Twi-hGALC-G270D cells (Twitcher mouse brain line with human GALC G270D), HMU-beta-Gal fluorescence, 48 h; series mostly up to 57.5 µM; activation: at the top concentration
Summary of the method: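 Live 145M-Twi cells (Twitcher mouse brain-derived, GALC-null) stably expressing human GALC-G270D, with a wild-type GALC line, were compound-treated. Residual GALC activity was then read as fluorescence from 0.1 mM final HMU-β-gal at pH 5.2; higher signal means activation.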

activation, inactive:
COc1cccc(CNC(=O)CCC(=O)N2CC(C)Sc3ccccc32)c1 (configuration not stated) -17.9%
Cc1ccccc1CN1C(=O)c2ccccc2S(=O)c2ccc(C(=O)NCc3ccc4c(c3)OCO4)cc21 (configuration not stated) -10.8%
CC(=O)Nc1cc(C(=O)Nc2ccc3c(c2)N(C)C(=O)c2ccccc2S3)ccc1C -10.3%
COc1ccc(N2CCN(S(=O)(=O)CCNC(=O)c3c(F)cccc3Cl)CC2)cc1 -14.6%
CCCN(CCC)C(=O)C1CCCN(c2ncnc3c2nc2n3CCCCC2)C1 (configuration not stated) -12.3%
Cc1ccccc1CNC(=O)c1ccc(CN2CC(=O)N3CCCCC3C2=O)cc1 (configuration not stated) -3.24%
CCc1nnc2c3ccccc3nc(N3CCN(c4cc(C)ccc4C)CC3)n12 -35.5%
CNCC[C@H](Oc1cccc2ccccc12)c1cccs1 -17.8%
Cc1nc2c(c(C)nn2C(C)(C)C)c(C)c1CCC(=O)Nc1ccc(Br)cc1Br -11.6%
Cc1ccc(NS(=O)(=O)c2c(C)nc3sc(C)cn3c2=O)c(C)c1 -9.55%
Cc1ccc(S(=O)(=O)c2nnn3c2nc(N2CCC(C(N)=O)CC2)c2cc(Cl)ccc23)cc1C -5.42%
CCC(=O)Nc1cc2nn(-c3ccc(C)cc3)nc2cc1C -16%
Cc1ccc(NC(=O)[C@@H](c2ccccc2)N2Cc3ccccc3C2=O)cc1F 1.26%
O=C(CCCN1CCC(O)(c2ccc(Br)cc2)CC1)c1ccc(F)cc1 -4.63%
Cc1c(C(=O)NCc2ccc(F)cc2)sc2nc(-c3ccc(F)cc3)cn12 -5.63%
CCOC(=O)Cn1c(=O)n(CC2CCCO2)c2nc(-c3ccc(CC)cc3)nc(C(N)=O)c21 (configuration not stated) -5.97%
O=C(CSc1ncc2c(n1)-c1ccc(Cl)cc1N(Cc1ccccc1)S2(=O)=O)Nc1ccccc1C(F)(F)F -16.3%
CCCCOc1ccccc1C1CC(=O)Nc2cc(OC)c(OC)cc21 (configuration not stated) -31.1%
CC(=O)Nc1c(C)nn(-c2ccccc2)c1N1CCC(C(=O)Nc2cccc(C(F)(F)F)c2)CC1 -9.72%
CCCc1nn2c(=O)cc(COC(=O)c3ccco3)nc2s1 -12%
COc1ccc(CCNC(=O)Cn2c(=O)c3cccn3c3ccccc32)cc1OC -14.6%
Cc1noc(Cn2c(=O)c3ccccc3n(CC(=O)Nc3ccc(C(C)C)cc3)c2=O)n1 -12.1%
Cc1cc(C)cc(N(CC(=O)NCc2ccccc2Cl)S(=O)(=O)c2c(C)[nH]c(=O)[nH]c2=O)c1 -18.6%
CCN(CC)c1cc2c(cc1F)c(=O)c(S(=O)(=O)c1ccccc1)cn2C 15.7%
COC(=O)c1c(NC(=O)/C=C/c2ccc(OC)c(OC)c2)sc2c1CCC2 -4.79%
CCOc1ccc(NC(=O)CN2CCSc3ccc(S(=O)(=O)N4CCCC4)cc32)cc1 -42.7%
CCn1cc(S(=O)(=O)c2ccc(C)cc2C)c(=O)c2cc(F)c(N3CCCCC3)cc21 -13.6%
CCc1cccc(NS(=O)(=O)c2cc(-c3cnc(C)o3)ccc2OC)c1 -6.97%
CCOC(=O)Cn1c(=O)n(CC2CCCO2)c2nc(-c3c(F)cccc3Cl)nc(C(N)=O)c21 (configuration not stated) -25.5%
C[N+]1(C)CCCC(OC(=O)C(O)(c2ccccc2)c2ccccc2)C1 (configuration not stated) -6.4%
CCc1ccccc1NS(=O)(=O)c1cc(Br)cc2c1N(C(=O)C1CC1)CC2 -7.77%
CCN(CC)CCCNC(=O)CN1C(=O)COc2ccc(S(=O)(=O)N3CCC(C)CC3)cc21 -9.49%
CC(Nc1oc(-c2ccc(COc3ccc(Cl)cc3)o2)nc1C#N)c1ccccc1 (configuration not stated) -13.1%
COCCNC(=O)CSc1nnc2[nH]c(=O)cc(C)n12 -9.66%
O=C(NCc1ccccc1)c1ccc2c(c1)nc1n2CCOC1 -8.74%
CCN(CC)c1ccc(NC(=O)CN2C(=O)c3cccnc3Oc3ccc(Cl)cc32)c(C)c1 -8.49%
N#C/C(=C1\SCC(c2ccccc2Cl)S1)n1ccnc1 (configuration not stated) -18.9%
CCn1c(=O)c2sccc2n2c(CCCC(=O)Nc3ccc(OC)c(OC)c3)nnc12 -7.38%
COc1ccc(C(=O)Nc2nc3n(n2)C(c2ccc(F)cc2)C=C(c2ccc(Cl)cc2)N3)cc1 (configuration not stated) -11.1%
CSc1ncc(Cl)c(C(=O)N(Cc2ccc(C(C)C)cc2)C2CCS(=O)(=O)C2)n1 (configuration not stated) -12.6%
Cc1ccccc1Cn1c(SCc2ccc(C(=O)NCCc3ccccc3)cc2)nc2ccncc21 -15.4%
Cc1cc(C)n(C(C)CC(=O)Nc2ccc(C)c(F)c2)n1 (configuration not stated) -22.8%
CCCCC1CCC(CCCC(C)CCC(=O)O)CC1 (configuration not stated) -15.8%
COc1ccc(-n2cc(-c3ccc4c(c3)OCO4)n(CC(=O)Nc3cccc(C)c3)c2=O)cc1 -19.7%
Cc1cccc(NC(=O)Cn2cc(S(=O)(=O)Cc3ccccc3Cl)c3ccccc32)c1 0.839%
O=C(CC1N=C2c3ccccc3N=C(SCC(=O)Nc3ccc(F)cc3)N2C1=O)NCc1ccc2c(c1)OCO2 (configuration not stated) -8.27%
COc1cccc(-c2n[nH]c3c2C(c2ccccn2)N(C)C3=O)c1 (configuration not stated) -11.5%
O=C(C1COc2ccccc2O1)N(Cc1cccnc1)c1nc2c(F)cc(F)cc2s1 (configuration not stated) -6.04%
Cc1ccc(C(=O)Nc2nnc(SCc3cc(=O)c4c(C)ccc(C)c4[nH]3)s2)cc1 3.43%
O=C(Nc1ccc2nn(-c3ccc(F)cc3)nc2c1)c1cccc2c(Cl)cccc12 -18.9%
COc1cccc(C(=O)N2CCC(c3nc4ccccc4s3)CC2)c1 -18.5%
CCOc1ccccc1NC(=O)c1ccc2c(c1)CCCN2S(C)(=O)=O -13.6%
COCCNc1cc(N2CCN(C3CCCCC3)CC2)c2noc3c2c1C(=O)c1ccccc1-3 -14.3%
Cc1cc(C)cc(OCC(=O)Nc2ccc(-c3nc4ncccc4o3)cc2C)c1 -3.29%
COC(=O)c1cccc(Nc2c(-c3cc(Br)ccc3O)nc3nc[nH]n23)c1 -11.9%
CCOc1ccccc1NC(=O)c1c(NCc2ccc(OC)c(OC)c2OC)sc2c1CCC(C)C2 (configuration not stated) 18.7%
CCc1nnc(SCc2nc(-c3ccccc3F)oc2C)c2cc3sccc3n12 -8.27%
Cc1ccc(Cl)cc1N1CCN(C(=O)c2c(C)oc3ncnc(N4CCOCC4)c23)CC1 -7.14%
O=C(CC1N=C2c3ccccc3N=C(SCc3cccc(Cl)c3)N2C1=O)NC1CCCCC1 (configuration not stated) -6.04%
CCCCCNC(=O)C1CCC(Cn2c(=O)c3sccc3n(CC(=O)N3CCCC3)c2=O)CC1 (configuration not stated) 9.61%
COc1cc(OC)c(NC(=O)c2nc(-c3ccncc3)no2)cc1Cl -13%
COc1ccc(NC(=O)CSc2nnc(-c3nnn(-c4ccc(F)cc4)c3C)o2)cc1 -23.4%
Cc1cccc(-c2noc(-c3ccc(NC4CCCC4)c([N+](=O)[O-])c3)n2)c1 -11.1%
Cc1ccc(OCC(=O)Nc2cccc(C(=O)OCc3cc(=O)n4cc(C)sc4n3)c2)cc1 -0.501%
Cc1ccc(Cl)cc1-n1c(=O)cc(N2CCN(c3ccccc3)CC2)[nH]c1=O -8.66%
Cc1cc2n(n1)CCCN2C(=O)Nc1ccccc1F 3.06%
CCOCN(C(=O)Cn1c(C)nc2ccccc21)c1c(C)cccc1CC -7.59%
Cn1c(=NC(=O)c2ccc(F)cc2)sc2cc(Br)ccc21 -16.2%
COc1cccc(C(=O)Nc2ccccc2-c2nc(-c3ccc(C)cc3)no2)c1 -8.89%
Cc1ccc(N2C(=O)c3n[nH]c(C)c3C2c2ccc(C(C)C)cc2)cc1 (configuration not stated) 0.402%
CCOC(=O)c1c(S(=O)(=O)N2CCN(c3ccccc3OC)CC2)c(C)n(C)c1C 2.19%
CCc1ccccc1NC(=O)CC(C)n1nc(C)cc1C (configuration not stated) -20.2%
CCCCCC[C@@H](CCC)C(=O)O -6.81%
COc1cc2c(cc1OC)C(=O)C(CC1CCN(Cc3ccccc3)CC1)C2 (configuration not stated) -4.62%
CCCCC(CC)CN1CN(CC(CC)CCCC)CC(C)(N)C1 (configuration not stated) -8.62%
O=c1c2cc3c(cc2n(Cc2cccc(F)c2)c(=O)n1Cc1nc(-c2ccccc2)no1)OCO3 4.45%
COc1cc(OC)c(NC(=O)NCc2ccc3c(c2)CCN3C(C)=O)cc1Cl -4.7%
CC(=O)c1cccc(NC(=O)c2sc3nc4c(cc3c2N)CCCC4)c1 -16.8%
c1ccc(N2CCN(c3ncnc4[nH]ncc34)CC2)cc1 -25.1%
Cc1cccn2c(=O)c(C(=O)NCCc3ccc(Cl)cc3)cnc12 -1.27%
CC(=O)c1ccc(NC(=O)C2CCC(CNS(=O)(=O)c3cccc4nsnc34)CC2)cc1 (configuration not stated) -29.2%
CCCNS(=O)(=O)c1cc(-c2nnc3c4ccccc4c(C)nn23)ccc1OC -14.8%
CC(C)(C)OC(=O)N1CCC(c2c(C(=O)N3CCN(C(=O)c4ccco4)CC3)cnn2-c2ccc(Cl)cc2)CC1 -16%
CCc1ccccc1N1C(=O)N(Cc2cccc(Cl)c2)c2ccccc2S1(=O)=O -3.73%
CCOc1ccc(NC(=O)C2CCCN(c3nnc(-n4c(C)ccc4C)s3)C2)cc1 (configuration not stated) -9.26%
Cc1ccc(Cl)cc1NC(=O)c1cccc(NC(=O)N2CCSc3ncccc32)c1 -30.9%
COCCN1C(=O)c2[nH]nc(-c3c(C)cc(C)cc3O)c2C1c1cccc(O)c1 (configuration not stated) 17.8%
CCc1ccc(NCc2cc3ccc(OC)cc3n(CC(=O)Nc3cccc(Cl)c3C)c2=O)cc1 -4.62%
Cc1ccc(-c2nnc(Nc3ccc(Br)cc3)c3ccccc23)cc1S(=O)(=O)NCc1nc2ccccc2[nH]1 -18.9%
Cc1ccc(C(=O)NCc2nnnn2-c2ccc(C)c(C)c2)cc1 6.25%
CCOc1ccc(NC(=O)CCS(=O)(=O)c2ccc3nc(C)sc3c2)cc1 6.86%
c1coc(-c2nc3ccccn3c2Nc2ccc3c(c2)OCCO3)c1 -27.8%
COc1ccc(-c2cn3c(n2)sc2cc(C(=O)Nc4ccccc4F)ccc23)cc1 -9.27%
COc1ccc(-n2c(SCC(=O)N3CCCc4ccccc43)nc3c([nH]c4ccccc43)c2=O)cc1 -15.8%
Cc1ccc(Cn2c(SCc3ccc(C(=O)NCCc4ccccc4)cc3)nc3ccncc32)cc1 -3.16%
CCn1cc(S(=O)(=O)c2cccc(C)c2)c(=O)c2cc(F)c(N3CCCCC3C)cc21 (configuration not stated) -5.41%
Cc1nc(-c2ccc(C)c(N3CCN(C(=O)Nc4ccc(Br)cc4)CC3)c2)no1 -18.2%
